The numbers were not newly measured in patent US20160263081A1, “ANTIPARASITIC AGENT” (NAI INC., priority 2013, published 2016), which cites them from elsewhere.

The term IC50 denotes the concentration that inhibits the measured activity by half.

Like-named read-outs stand apart in the source and are kept apart here.

Series [1] deals with T. brucei gambiense bloodstream form. To be noted: cited from earlier work.
The test system of series [2] is T. brucei rhodensiense bloodstream form. The note with it: cited from earlier work.
The mark [3] stands for this setting: T. brucei gambiense bloodstream form.
[4] abbreviates: T. brucei rhodensiense bloodstream form.

Take `Nc1nc(N)nc(Nc2ccc([As]3SCC(CO)S3)cc2)n1` (stereo not drawn) [melarsoprol]: the IC50 in series [1] (setting [3]) was 4 nM; in series [2] (setting [4]) it was 7 nM.
As for `Cc1ccc(C(=O)Nc2ccc(S(=O)(=O)O)c3cc(S(=O)(=O)O)cc(S(=O)(=O)O)c23)cc1NC(=O)c1cccc(NC(=O)Nc2cccc(C(=O)Nc3cc(C(=O)Nc4ccc(S(=O)(=O)O)c5cc(S(=O)(=O)O)cc(S(=O)(=O)O)c45)ccc3C)c2)c1` [Suramin], the IC50 in series [1] is 349 nM; in series [2], 15 nM.
Turning to `N=C(N)c1ccc(OCCCCCOc2ccc(C(=N)N)cc2)cc1` [pentamidine], the IC50 was 0.9 nM in series [1] (setting [3]) and 0.6 nM in series [2] (setting [4]).
